Results taken from PubChem BioAssay AID652104 (National Center for Advancing Translational Sciences (NCATS), 2013).
Out of some 410,000 compounds screened, about 7,200 (1.8%) were called active. Inconclusive results, whose numbers are uncertain, are shown with a selection of clear calls. Calls follow the shape of the dose curve; as a rule, active = well fitted activation curve with a large enough effect; inconclusive = small, poorly fitted or top-dose-only effect, or another doubt; inactive = no such curve, though single readings can be large or run the other way. Potencies of inconclusive entries are left out as doubtful fits.

test: qHTS of TDP-43 Inhibitors; settings: TDP-43 expressing yeast growth rescue, BacTiter-Glo, 24 h; growth rescue (activation): at 46.1 µM (top of the series) unless noted; also: nearly all actives have a fitted effect of over 50% in size; as to growth rescue (activation): % of control where 0% means no effect
In short: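 Yeast cells expressing TDP-43 under galactose induction are exposed to compounds for 24 hr at 30 deg C. BacTiter-Glo luminescence measures growth, so protective compounds score as activators.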
Potency is read from the fitted curve at half-maximal effect; tags tell the direction and shape of the fitted curve.

**Q.** With O=C(CSc1cnc2ccccc2n1)NC1CCCC1 as the compound, how does the Potency read?
**A.** inconclusive [activator, single point]

**Q.** Which “growth rescue (activation)” value does the source give for CCOc1ccccc1CNC(=O)C1CCCN(c2ncnc3onc(-c4ccc(F)cc4)c23)C1 (stereo unspecified) here?
**A.** inactive: 17.9%

**Q.** For CCCCOc1ccc(CN2C(=O)C(=O)c3cc(Br)cc(C)c32)cc1OC, which “growth rescue (activation)” value is on record?
**A.** inactive: -8.61%

**Q.** For Clc1ccc(CNc2ncccn2)cc1, which Potency is on record?
**A.** inconclusive [activator, partial curve]

**Q.** Which Potency does the source give for Cc1ncc([N+](=O)[O-])n1CCO here?
**A.** inconclusive [activator, partial curve]

**Q.** Which Potency does the source give for O=C(O)c1cccc2c3c([nH]c12)CCCC3 here?
**A.** inconclusive [activator, partial curve]

**Q.** For CCOc1ccc(-n2c(C)c(C(C)=O)c3cc(OC(C)=O)ccc32)cc1, which “growth rescue (activation)” value is on record?
**A.** inactive: 14%

**Q.** With Oc1ccc(CNc2ccc(F)cc2)c2cccnc12 as the compound, how does the Potency read?
**A.** inconclusive [activator, single point]

**Q.** Which Potency does the source give for CCOc1ccccc1NC(=O)CSc1nnc(-c2cnccn2)n1CC here?
**A.** inconclusive [activator, single point]

**Q.** Which Potency does the source give for COc1ccc(-c2oc3c(OC)c(OC)c(OC)c(O)c3c(=O)c2OC)cc1OC here?
**A.** inconclusive [activator, partial curve]

**Q.** With CCN(c1ccccc1)c1nnc(NC(=O)Nc2ccc(Br)cc2)s1 as the compound, how does the “growth rescue (activation)” value read?
**A.** inactive: 10.2%

**Q.** Which “growth rescue (activation)” value does the source give for CN(C(=O)c1ccno1)c1nnc(-c2ccccn2)s1 here?
**A.** inactive: -16.5%

**Q.** Which Potency does the source give for CCN(CC)S(=O)(=O)c1ccc(NC(=O)CSc2ncnc3ccccc23)cc1 here?
**A.** inconclusive [activator, partial curve]

**Q.** For COc1ccc(CNC(=O)c2cc(COc3c(F)cccc3F)on2)cc1OC, which “growth rescue (activation)” value is on record?
**A.** inactive: 4.16%

**Q.** With Cc1cccc(C(=O)Nc2sc3c(c2C(=O)N2CCCCC2)CCC(C)C3)c1 (stereo unspecified) as the compound, how does the Potency read?
**A.** inconclusive [activator, full curve, poor fit]

**Q.** With COc1ccc(CN(C)C(=O)COC(=O)c2c(C)nn(-c3ccc(F)cc3)c2Cl)cc1 as the compound, how does the Potency read?
**A.** inconclusive [activator, single point]

**Q.** For COc1ccc(CCNc2cc(C)nc3c(-c4ccc(Cl)cc4)cnn23)cc1OC, which Potency is on record?
**A.** active: 17.8 µM

**Q.** Which Potency does the source give for COc1cccc(C2=C(C(C)=O)Sc3nncn3N2C(C)=O)c1 here?
**A.** active: 35.5 µM

**Q.** For O=C(NNC(=S)Nc1ccc(Br)cc1)c1ccccc1Br, which Potency is on record?
**A.** inconclusive [activator, partial curve]

**Q.** For CCOC(=O)c1ccc(NC(=O)CCc2c(C)nc3c(c(C)nn3-c3ccccc3)c2C)cc1, which “growth rescue (activation)” value is on record?
**A.** inactive: 23.9%

**Q.** Which Potency does the source give for O=S(=O)(NCc1csc(-c2ccccc2)n1)c1cccc(F)c1 here?
**A.** inconclusive [activator, partial curve]

**Q.** For CCOc1ccc(CCNc2ncnc3onc(-c4ccc(Cl)cc4)c23)cc1OCC, which Potency is on record?
**A.** inconclusive [activator, partial curve, poor fit]

**Q.** For COC(=O)CN(c1cccc(OC)c1)S(C)(=O)=O, which “growth rescue (activation)” value is on record?
**A.** inactive: -10.8%

**Q.** With CCOC(=O)C1NC(=O)CC1c1ccccc1 (stereo unspecified) as the compound, how does the Potency read?
**A.** inconclusive [activator, partial curve]

**Q.** For Cc1nc([N+](=O)[O-])c(Br)n1CC(=O)c1ccc2ccccc2c1, which Potency is on record?
**A.** active: 15.8 µM

**Q.** Which Potency does the source give for CC(C)(C)NC(=O)C(CCc1ccccc1)n1c(=O)c(-c2cc3ccccc3[nH]2)nc2ccccc21 (stereo unspecified) here?
**A.** inconclusive [activator, full curve, poor fit]

**Q.** For Cc1ccnc(SCC(=O)c2cccc([N+](=O)[O-])c2)n1, which Potency is on record?
**A.** inconclusive [activator, partial curve]

**Q.** With Cc1ccc(NC(=O)/C=C\C(=O)NCC(=O)O)cc1C as the compound, how does the Potency read?
**A.** inconclusive [activator, full curve, poor fit]

**Q.** Which Potency does the source give for Cc1nc(C(C)NC(=O)c2cc(COc3ccc(F)c(F)c3)on2)cs1 (stereo unspecified) here?
**A.** inconclusive [activator, single point]

**Q.** With O=C(O)C1CC1c1ccc(Br)cc1 (stereo unspecified) as the compound, how does the Potency read?
**A.** inconclusive [activator, single point]

**Q.** Which Potency does the source give for O=C(OCCCOc1ccc(F)cc1)c1ccc(O)cc1O here?
**A.** active: 12.6 µM

**Q.** For CCN1C(=O)CC(N2CCC(Nc3ccc(F)cc3)CC2)C1=O (stereo unspecified), which Potency is on record?
**A.** inconclusive [activator, single point]

**Q.** For COc1ccc(/C=C/C(=O)c2ccc(OC)cc2O)cc1, which Potency is on record?
**A.** inconclusive [activator, single point]

**Q.** With CCC1CCc2sc(C(=O)NCC3CCCO3)cc2C1 (stereo unspecified) as the compound, how does the Potency read?
**A.** inconclusive [activator, partial curve]

**Q.** Which Potency does the source give for C/C(=N\NC(N)=S)c1cc(-c2ccccc2)c(-c2ccccc2)s1 here?
**A.** inconclusive [activator, single point]

**Q.** Which growth rescue (activation) does the source give for CCOc1ccc(-c2nonc2NC(=O)c2oc3ccc(F)cc3c2C)cc1 here?
**A.** inactive: -8.75% [at 9.22 µM]

**Q.** With c1coc(-c2nc(N=C3N=c4ccccc4=N3)[nH]c2-c2ccco2)c1 as the compound, how does the Potency read?
**A.** inconclusive [activator, partial curve, poor fit]

**Q.** With COC(=O)CN1C(=S)N(c2ccc(Cl)cc2)C(=O)C1CC(=O)Nc1ccc(Cl)cc1 (stereo unspecified) as the compound, how does the Potency read?
**A.** inconclusive [activator, single point]

**Q.** With COc1ccc(-c2noc(=O)n2Cc2ccc(C#N)cc2)cc1 as the compound, how does the “growth rescue (activation)” value read?
**A.** inactive: 16.5%

**Q.** Which Potency does the source give for OC(CN1CCN(c2ccccn2)CC1)Cn1c2ccc(Cl)cc2c2cc(Cl)ccc21 (stereo unspecified) here?
**A.** inconclusive [activator, single point]

**Q.** With CC(=O)c1ccc(NC(=O)CCc2c(C)nc3c(c(C)nn3-c3ccc(C)cc3)c2C)cc1 as the compound, how does the “growth rescue (activation)” value read?
**A.** inactive: 7.59%

**Q.** With CC(=O)Nc1ccc(S(=O)(=O)N2CCN(c3cccc(C)c3C)CC2)cc1 as the compound, how does the “growth rescue (activation)” value read?
**A.** inactive: 3.87%

**Q.** For Cc1ccccc1Cn1c(=O)[nH]c2ccccc21, which Potency is on record?
**A.** inconclusive [activator, partial curve]

**Q.** Which Potency does the source give for O=[N+]([O-])c1cc(/C=N/NC(=S)Nc2ccccc2Cl)ccc1Cl here?
**A.** inconclusive [activator, partial curve]

**Q.** Which “growth rescue (activation)” value does the source give for O=C(NC12CC3CC(CC(C3)C1)C2)c1ccc(-c2ccc(Br)cc2)o1 here?
**A.** inactive: 3.74%

**Q.** Which Potency does the source give for CCn1c(/C=C/c2ccc(F)cc2)nc2ccccc2c1=O here?
**A.** active: 22.4 µM

**Q.** Which Potency does the source give for CC(=O)Nc1ccc(Oc2cnc3ccccc3n2)cc1 here?
**A.** inconclusive [activator, partial curve]

**Q.** With O=C(CCS(=O)(=O)c1nc(-c2cccs2)cc(C(F)(F)F)n1)Nc1ccc(OC(F)(F)F)cc1 as the compound, how does the Potency read?
**A.** inconclusive [activator, full curve]

**Q.** For Cc1cc([N+](=O)[O-])c(NCCCCCCO)c([N+](=O)[O-])c1, which Potency is on record?
**A.** inconclusive [activator, partial curve]

**Q.** For O=C(Nc1cc(Cl)cc(Cl)c1)c1ccc(F)c(S(=O)(=O)N2CCc3ccccc32)c1, which “growth rescue (activation)” value is on record?
**A.** inactive: 12.3%

**Q.** For O=C(Nc1cccc(S(=O)(=O)N2CCCC2)c1)c1ccc2ccccc2n1, which Potency is on record?
**A.** inconclusive [activator, partial curve]

**Q.** Which Potency does the source give for CN(C(=O)c1cccc(NC(=O)c2ccccc2)c1)C1CCCCC1 here?
**A.** inconclusive [activator, single point]

**Q.** For COc1ccc(-c2cc(C)no2)cc1S(=O)(=O)N1CCOc2ccccc21, which Potency is on record?
**A.** inactive

**Q.** Which Potency does the source give for COc1ccc(CNC(=O)/C(C#N)=C/c2cccc(OC)c2OC)cc1 here?
**A.** inconclusive [activator, partial curve]

**Q.** For CC1CCCCC1NC(=O)CSc1ncnc2sccc12 (stereo unspecified), which Potency is on record?
**A.** inconclusive [activator, partial curve]

**Q.** Which Potency does the source give for Cc1ccc(OCCSc2nc(NC(C)C)nc(NC(C)C)n2)cc1 here?
**A.** inconclusive [activator, single point]

**Q.** With COc1ccc(Cl)cc1NC(=O)CC1CCCC1 as the compound, how does the Potency read?
**A.** inconclusive [activator, partial curve]

**Q.** Which Potency does the source give for O=C(COc1ccc(Cl)cc1)NNC(=O)c1ccccc1C(=O)O here?
**A.** inconclusive [activator, single point]

**Q.** With CCOC(=O)[C@H]1[C@H]2COc3ccc(C)cc3[C@@H]2N2C(=O)c3cc(Cl)ccc3NC(=O)[C@@]12C as the compound, how does the Potency read?
**A.** inconclusive [activator, single point]

**Q.** With Cc1cc(C)n(CCOc2ccc(Br)cc2)n1 as the compound, how does the Potency read?
**A.** inconclusive [activator, partial curve]

**Q.** Which “growth rescue (activation)” value does the source give for COc1cc(/C=C(\NC(=O)c2ccccc2)C(=O)Nc2nccs2)ccc1OC(C)=O here?
**A.** inactive: -12.6%

**Q.** For COc1ccc(-c2nnn(Cc3ccccc3)n2)cc1, which Potency is on record?
**A.** inconclusive [activator, partial curve]

**Q.** With COc1cc(OC)c(OC)cc1/C=C/c1nc2cc3ccccc3cc2c(=O)n1-c1ccc(F)cc1F as the compound, how does the “growth rescue (activation)” value read?
**A.** inactive: 29.1%

**Q.** Which Potency does the source give for CC(=NNC(=S)N1CCCCCC1)c1cccc2cccnc12 here?
**A.** inconclusive [activator, single point]

**Q.** With Cc1ccc(S(=O)(=O)/N=C2/C=C(C3C(=O)CC(C)(C)CC3=O)C(=O)c3ccccc32)cc1 as the compound, how does the Potency read?
**A.** inconclusive [activator, single point]

**Q.** With Cc1ccccc1NC(=O)CSc1ccc(-c2ccco2)nn1 as the compound, how does the Potency read?
**A.** inconclusive [activator, single point]

**Q.** With CC(=O)Nc1cc(OC(C)=O)c2nonc2c1OC(C)=O as the compound, how does the “growth rescue (activation)” value read?
**A.** inactive: -4.84%

**Q.** Which Potency does the source give for O=C(CCC(=O)N1CCOc2ccc(Cl)cc21)NCCCN1CCN(c2ccccc2F)CC1 here?
**A.** inconclusive [activator, partial curve]

**Q.** With CCOc1nc(-c2ccccc2)ccc1-c1noc(-c2ccco2)n1 as the compound, how does the “growth rescue (activation)” value read?
**A.** inactive: 7.96%

**Q.** With O=C(c1cc(-c2ccc(Cl)cc2)n(-c2ccc(Cl)cc2)n1)N1CCOCC1 as the compound, how does the Potency read?
**A.** inconclusive [activator, single point]

**Q.** For CCn1c(=O)sc2cc(NS(=O)(=O)c3ccc(F)c(C)c3)ccc21, which “growth rescue (activation)” value is on record?
**A.** inactive: 0%
